# In PubChem BioAssay AID624417 (National Center for Advancing Translational Sciences (NCATS), 2012):
# Screen size: about 410,000 compounds; about 6,400 (1.6%) were called active. This list was built around the results that the source calls inconclusive (neither active nor inactive); the mix of calls is not that of the screen. Calls follow the shape of the dose curve; as a rule, active = well fitted inhibition curve with a large enough effect; inconclusive = small, poorly fitted or top-dose-only effect; inactive = no such curve, though single readings can be large or run the other way. Potencies of inconclusive entries are left out as doubtful fits.
# Biological target: Glucagon-like peptide 1 receptor (Homo sapiens) (UniProt P43220)
# Sequence of UniProt P43220 (P43220 whole entry, looked up): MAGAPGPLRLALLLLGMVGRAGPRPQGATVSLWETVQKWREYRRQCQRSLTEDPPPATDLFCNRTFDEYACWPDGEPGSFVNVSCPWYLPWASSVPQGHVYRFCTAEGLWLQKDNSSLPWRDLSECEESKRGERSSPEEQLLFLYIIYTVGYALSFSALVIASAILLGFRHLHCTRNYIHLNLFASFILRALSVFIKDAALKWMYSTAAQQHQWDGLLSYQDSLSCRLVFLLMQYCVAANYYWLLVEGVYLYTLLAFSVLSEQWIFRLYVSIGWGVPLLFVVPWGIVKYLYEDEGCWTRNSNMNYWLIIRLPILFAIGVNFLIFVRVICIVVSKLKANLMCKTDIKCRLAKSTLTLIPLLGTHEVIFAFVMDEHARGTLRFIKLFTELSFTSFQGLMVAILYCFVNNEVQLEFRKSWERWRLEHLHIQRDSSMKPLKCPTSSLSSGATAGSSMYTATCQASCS
# Experiment: qHTS of GLP-1 Receptor Inverse Agonists (Inhibition Mode); also: nearly all actives have a fitted effect of over 55% in size
# Conditions: HEK293 GLP-1R CRE-luciferase, luminescence, 24 h, GLP-1R form is constitutively active; series mostly up to 38.3 µM
# Method in brief: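 qHTS in 1536-well format: reporter HEK293 cells expressing constitutive GLP-1R activity in DMEM + 10% Nu serum, 24 hr with compounds at 37 deg C, luminescence read after 12 min with detection reagent.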
# Potency is read from the fitted curve at half-maximal effect; tags tell the direction and shape of the fitted curve.
row,Compound,Potency
1,CCOCCCNC(=S)N1CCCN(c2nc3cc(C)c(C)cc3cc2C#N)CC1,"inconclusive [inhibitor, partial curve, poor fit]"
2,CN(C)c1ccc(CNC(=O)c2ccc(Cn3c(=O)c4cccn4c4cccnc43)cc2)cc1,inactive
3,COc1cccc(CN(C)C(=O)c2cccc(S(=O)(=O)N3CCN(c4ccccc4)CC3)c2)c1OC,"inconclusive [inhibitor, partial curve]"
4,CC(C)(C)c1ccc(C(=O)NCC(c2ccco2)S(=O)(=O)c2ccc(F)cc2)cc1 (configuration not stated),"inconclusive [inhibitor, single point]"
5,COc1ccc(C(NC(=O)C2CCN(Cc3ccc(Oc4ccccc4)cc3)CC2)c2ccccc2C)cn1 (configuration not stated),"inconclusive [inhibitor, partial curve, poor fit]"
6,COc1ccc(CNC(=O)CSc2ncc3c(n2)-c2ccc(Cl)cc2N(Cc2ccc(F)cc2)S3(=O)=O)cc1OC,inactive
7,CCOC(=O)/C(=N\Nc1ccc(Cl)cc1)c1csc(Nc2ccccc2)n1,"inconclusive [inhibitor, partial curve, poor fit]"
8,NS(=O)(=O)c1ccc(NC(=O)Nc2ccc(S(N)(=O)=O)cc2)cc1,inactive
9,O=C(C1CCN(S(=O)(=O)c2cccc3nsnc23)CC1)N1CCc2ccccc2C1,"inconclusive [inhibitor, partial curve, poor fit]"
10,CC(C)C(=O)Nc1ccc(C(=O)c2ccccc2)cc1,inactive
11,Cc1ccc(-c2cn(-c3cccc(Cl)c3)c(S(=O)(=O)CC(=O)Nc3ccccc3F)n2)cc1,"inconclusive [inhibitor, single point]"
12,CCC1CCCCN1S(=O)(=O)c1ccc(S(=O)(=O)N(Cc2cccs2)C2CC2)cc1 (configuration not stated),"inconclusive [inhibitor, full curve, poor fit]"
13,COc1ccc(N(C(=O)c2ccn[nH]2)C(C(=O)NC(C)(C)C)c2ccc(F)cc2)cc1 (configuration not stated),"inconclusive [inhibitor, partial curve, poor fit]"
14,Cc1cc(C(=O)N/N=C/c2ccc3c(c2)OCO3)c(C)n1-c1ccc(F)cc1,"inconclusive [inhibitor, single point]"
15,Cc1ccc(-n2c(=O)c3ccc(C(=O)NCc4ccco4)cc3n(Cc3ccccc3C#N)c2=O)cc1,"inconclusive [inhibitor, full curve, poor fit]"
16,COc1ccc(NC(=O)CN2C(=O)C(c3ccccc3)=NC23CCCCCC3)cc1,"inconclusive [inhibitor, partial curve, poor fit]"
17,Cc1ccc2nc(NC(=O)c3ccccc3F)sc2c1,"inconclusive [inhibitor, full curve, poor fit]"
18,Cc1onc(-c2ccccc2)c1C(=O)NC1CCC(C)CC1 (configuration not stated),"inconclusive [inhibitor, single point]"
19,CCOc1cc(-c2n[nH]c(=S)n2Cc2ccccc2)ccc1OC(F)F,inactive
20,CC(C)c1ccc(NS(=O)(=O)c2ccc3nc(-c4ccccc4)[nH]c3c2)cc1,"inconclusive [inhibitor, partial curve, poor fit]"
21,CCNC(=O)CN(c1ccc(Cl)cc1)S(=O)(=O)c1ccccc1,"inconclusive [inhibitor, single point]"

row,Compound,Potency
1,COc1ccc(NCc2cc3cc4c(cc3n(CC(=O)Nc3cc(C)ccc3C)c2=O)OCCO4)cc1,inactive
2,O=S(=O)(c1ccccc1)N(CC(F)(F)F)c1ccc(C(O)(C(F)(F)F)C(F)(F)F)cc1,"inconclusive [inhibitor, partial curve, poor fit]"
3,Cc1cccc(-c2noc(CCC(=O)NCCc3ccccc3)n2)c1,"inconclusive [inhibitor, single point]"
4,CC(NC(=O)C1CCC(C(C)(C)C)CC1)C(c1ccccc1)N1CCOCC1 (configuration not stated),"inconclusive [inhibitor, partial curve, poor fit]"
5,Cc1nn2c(=O)cc(COC(=O)c3ccccc3NC(=O)C(C)Oc3ccccc3)nc2s1 (configuration not stated),inactive
6,CO/N=C\C(=N\Nc1ccc(OC)cc1)C(=O)c1ccccc1,"inconclusive [inhibitor, partial curve]"
7,O=C(CSc1ccc(Cl)cc1)N1CCC(c2nc3ccccc3s2)CC1,"inconclusive [inhibitor, partial curve, poor fit]"
8,O=C(NC(Cc1ccc(F)cc1)C(=O)O)c1ccccc1 (configuration not stated),inactive
9,COc1cccc(NC(=O)CN(C)C(=O)c2cccc(S(=O)(=O)N3CCN(c4ccccc4)CC3)c2)c1,"inconclusive [inhibitor, partial curve, poor fit]"
10,O=c1c2ccccc2nc(N/N=C/c2ccc(O)cc2)n1O,inactive
11,COc1cccc(N(CC(=O)NCCSCc2ccc(Cl)cc2)S(C)(=O)=O)c1,"inconclusive [inhibitor, partial curve, poor fit]"
12,COc1ccc(NC(=O)CN2CCc3ccccc3C2)c(OC)c1,"inconclusive [inhibitor, single point]"
13,S=C(N/N=C/c1ccccc1Cl)Nc1cccc(Cl)c1Cl,inactive
14,CN1CCN(S(=O)(=O)c2cccc(C(=O)Oc3ccc(Br)cc3F)c2)CC1,"inconclusive [inhibitor, partial curve]"
15,Clc1cccc(N/N=C(\Cc2nc3ccccc3[nH]2)c2ccccc2)c1,"inconclusive [inhibitor, partial curve, poor fit]"
16,CCCS(=O)(=O)NC(=O)C1(C)CCCN(C(=O)c2cccs2)C1 (configuration not stated),inactive
17,CC(=O)c1c(C)oc2ccc(N(C(C)=O)S(=O)(=O)c3ccc(Br)cc3)cc12,"inconclusive [inhibitor, partial curve, poor fit]"
18,O=C(NC1CCCCCC1)c1c(F)c(F)c(F)c(F)c1F,"inconclusive [inhibitor, full curve, poor fit]"
19,CSc1nc(Sc2ccccc2Cl)c2ccccc2n1,inactive
20,CC1CCN(C(=O)c2[nH]cnc2C(=O)NCC(=O)OC(C)(C)C)CC1,inactive
21,COc1cc2[nH]c(Cl)c([N+](=O)[O-])c2cc1OC,inactive

row,Compound,Potency
1,O=C1C=C(c2ccc(Cl)c(C(F)(F)F)c2)C[C@@H](c2ccc(F)cc2)C1,inactive
2,CCOC(=O)c1ccc(NC(=O)c2cc3sccc3n2Cc2ccc(Cl)cc2)cc1,"inconclusive [inhibitor, partial curve, poor fit]"
3,COc1cc2c(cc1OC)CN(c1nc(CN3CCCCC3)nc3sc4c(c13)CCCC4)CC2,"inconclusive [inhibitor, single point]"
4,CC(C)N1CCC(N2CCN(C/C=C/c3ccccc3)CC2CCO)CC1 (configuration not stated),"inconclusive [inhibitor, partial curve, poor fit]"
5,Cc1cccc(N2CCN(S(=O)(=O)c3csc(C(N)=O)c3)CC2)c1C,"inconclusive [inhibitor, partial curve]"
6,CCN(CC)CCCOc1ccc(Cl)c(Cl)c1,"inconclusive [inhibitor, partial curve, poor fit]"
7,O=C(CSC1CC(=O)N(CC(c2ccccc2)c2ccccc2)C1=O)Nc1ccc(Cl)cc1 (configuration not stated),"inconclusive [inhibitor, partial curve, poor fit]"
8,O=C1CC(N(Cc2cccs2)C(=O)Nc2ccccc2)C(=O)N1c1ccc(Cl)cc1 (configuration not stated),active: 8.91 µM
9,CC1=CC(C)(C)N(C(=O)CSc2nnc(C)s2)c2ccc(C)cc21,"inconclusive [inhibitor, partial curve, poor fit]"
10,CCN1CCN(CCCNC(=O)c2ccc(/C=C3/Sc4ccccc4N(Cc4ccccc4F)C3=O)cc2)CC1,"inconclusive [inhibitor, partial curve, poor fit]"
11,Cc1cc(C(=O)Nn2c(C3CCCCC3)nc3ccccc3c2=O)ccc1[N+](=O)[O-],"inconclusive [inhibitor, single point]"
12,Cc1ccc(N(Cc2cccs2)C(=O)c2ccccc2Cl)cc1,"inconclusive [inhibitor, single point]"
13,CC1CCN(S(=O)(=O)N2CCCC(C(=O)NCc3ccc(F)cc3)C2)CC1 (configuration not stated),"inconclusive [inhibitor, partial curve, poor fit]"
14,COc1ccc2cc3cc(C(=O)NCc4ccccc4OC)oc3nc2c1,inactive
15,S=C(NCC1CCCO1)N1CCN(c2nc(-c3ccccc3)cs2)CC1 (configuration not stated),"inconclusive [inhibitor, partial curve]"
16,CCCN(CCC)C(=O)C1c2ccccc2Oc2ccccc21,"inconclusive [inhibitor, partial curve, poor fit]"
17,CN(C)c1ccc(C2C=C(c3ccc(Cl)cc3OC(F)F)Nc3ncnn32)cc1 (configuration not stated),"inconclusive [inhibitor, partial curve, poor fit]"
18,CCOC(=O)c1ccccc1NC(=O)C1CSC2(C)CCC(=O)N12 (configuration not stated),"inconclusive [inhibitor, partial curve, poor fit]"
19,Cc1ccc(N(C)C(=O)c2cc(S(=O)(=O)N3CCc4ccccc43)cn2C)cc1,"inconclusive [inhibitor, single point]"
20,CCN(CC)C(=O)CN1C(=O)/C(=C/c2ccccc2)SC1=S,"inconclusive [inhibitor, partial curve, poor fit]"
